The IC50 comes from the fitted curve, where viability falls to half of the control; a fit beyond the top or the lowest dose is shown as a bound at that dose. AUC sums up the same curve from the lowest dose to the 256-fold higher top dose; values near 1 show little effect. Any top dose called inferred was derived from the fitted curves, not read from the paper.
Compound: Cn1cc(C2=C(c3cn(C4CCN(Cc5ccccn5)CC4)c4ccccc34)C(=O)NC2=O)c2ccccc21 [LY317615]
Test: Viability of human cancer cell lines after 72 h of drug (GDSC screen)
Conditions: top dose inferred
Protocol: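 Human cancer cell lines in 384-well plates, medium with 10% serum, drug for 72 h over a 256-fold dose range (nine 2-fold or five 4-fold steps up to the top dose). Adherent lines were fixed and stained with the nucleic acid dye Syto60, suspension lines read with resazurin; signal relative to control wells, capped at 0 and 100%. One two-parameter sigmoid per drug and line, fitted in a mixed model over all curves with the slope shared within a line.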

Cell Line	AUC	IC50 [µM]
SUP-M2 (anaplastic large cell lymphoma, suspension, top dose 20 µM)	0.867	11.4
SUP-T1 (T-cell lymphoblastic leukaemia, suspension, top dose 20 µM)	0.507	1.31
SW13 (adrenal gland, adherent, top dose 20 µM)	0.988	> 20
SW48 (large intestine, adherent, top dose 20 µM)	0.931	> 20
SW156 (kidney, adherent, top dose 20 µM)	0.913	> 20
SW620 (large intestine, adherent, top dose 20 µM)	0.548	1.66
SW626 (ovary, adherent, top dose 20 µM)	0.76	8.29
SW684 (fibrosarcoma, adherent, top dose 20 µM)	0.982	> 20
SW756 (cervix, adherent, top dose 20 µM)	0.985	> 20
SW780 (bladder, adherent, top dose 20 µM)	0.986	> 20
SW837 (large intestine, adherent, top dose 20 µM)	0.829	18.3
SW872 (soft tissue, adherent, top dose 20 µM)	0.919	> 20
SW900 (lung squamous cell carcinoma, adherent, top dose 20 µM)	0.535	1.59
SW948 (large intestine, adherent, top dose 20 µM)	0.955	> 20
SW954 (urogenital system, adherent, top dose 20 µM)	0.891	> 20
SW962 (urogenital system, adherent, top dose 20 µM)	0.929	> 20
SW982 (soft tissue, adherent, top dose 20 µM)	0.603	2.42
SW1088 (glioma, adherent, top dose 20 µM)	0.916	> 20
SW1116 (large intestine, adherent, top dose 20 µM)	0.986	> 20
SW1271 (small cell lung carcinoma, adherent, top dose 20 µM)	0.984	> 20
SW1417 (large intestine, adherent, top dose 20 µM)	0.854	> 20

Cell Line	AUC	IC50 [µM]
SW1463 (large intestine, adherent, top dose 20 µM)	0.725	8.85
SW1573 (lung adenocarcinoma, adherent, top dose 20 µM)	0.935	> 20
SW1710 (bladder, adherent, top dose 20 µM)	0.86	17.6
SW1783 (glioma, adherent, top dose 20 µM)	0.957	> 20
SW1990 (pancreas, adherent, top dose 20 µM)	0.966	> 20
Saos-2 (osteosarcoma, adherent, top dose 20 µM)	0.981	> 20
SiHa (cervix, adherent, top dose 20 µM)	0.987	> 20
T47D (breast, adherent, top dose 20 µM)	0.951	> 20
T84 (large intestine, adherent, top dose 20 µM)	0.87	19.1
T98G (glioma, adherent, top dose 20 µM)	0.935	> 20
T-24 (bladder, adherent, top dose 20 µM)	0.878	18.7
T-T (oesophagus, adherent, top dose 20 µM)	0.979	> 20
TALL-1 (T-cell lymphoblastic leukaemia, suspension, top dose 20 µM)	0.711	4.76
TC-71 (Ewing sarcoma, adherent, top dose 20 µM)	0.907	19.3
TCCSUP (bladder, adherent, top dose 20 µM)	0.981	> 20
TE-1 (oesophagus, adherent, top dose 20 µM)	0.905	> 20
TE-4 (oesophagus, adherent, top dose 20 µM)	0.92	> 20
TE-5 (oesophagus, adherent, top dose 20 µM)	0.982	> 20
TE-6 (oesophagus, adherent, top dose 20 µM)	0.96	> 20
TE-8 (oesophagus, adherent, top dose 20 µM)	0.942	> 20
TE-9 (oesophagus, adherent, top dose 20 µM)	0.953	> 20

Cell Line	AUC	IC50 [µM]
TE-10 (oesophagus, adherent, top dose 20 µM)	0.869	17.8
TE-11 (oesophagus, adherent, top dose 20 µM)	0.951	> 20
TE-12 (oesophagus, suspension, top dose 20 µM)	0.899	> 20
TE-15 (oesophagus, suspension, top dose 20 µM)	0.572	2.03
TE-441-T (rhabdomyosarcoma, adherent, top dose 20 µM)	0.988	> 20
TGBC1TKB (biliary tract, adherent, top dose 20 µM)	0.924	> 20
TGBC11TKB (stomach, adherent, top dose 20 µM)	0.974	> 20
TGBC24TKB (biliary tract, adherent, top dose 20 µM)	0.93	> 20
TGW (neuroblastoma, adherent, top dose 20 µM)	0.91	> 20
TK10 (kidney, adherent, top dose 20 µM)	0.649	3.55
TK (B-cell lymphoma, suspension, top dose 20 µM)	0.831	11.1
TMK-1 (stomach, adherent, top dose 20 µM)	0.959	> 20
TOV-21G (ovary, adherent, top dose 20 µM)	0.504	1.28
TOV-112D (ovary, adherent, top dose 20 µM)	0.618	2.65
TT2609-C02 (thyroid, adherent, top dose 20 µM)	0.76	7.46
TT (thyroid, adherent, top dose 20 µM)	0.965	> 20
TUR (B-cell lymphoma, suspension, top dose 20 µM)	0.88	18
TYK-nu (ovary, adherent, top dose 20 µM)	0.72	5.54
U031 (kidney, adherent, top dose 20 µM)	0.696	4.53
U251 (glioma, adherent, top dose 20 µM)	0.88	19
U-2-OS (osteosarcoma, adherent, top dose 20 µM)	0.981	> 20

Cell Line	AUC	IC50 [µM]
U-87-MG (glioma, adherent, top dose 20 µM)	0.96	> 20
U-118-MG (glioma, adherent, top dose 20 µM)	0.986	> 20
U-698-M (B-cell leukaemia, suspension, top dose 20 µM)	0.901	> 20
UACC-62 (melanoma, adherent, top dose 20 µM)	0.986	> 20
UACC-257 (melanoma, adherent, top dose 20 µM)	0.812	14.1
UACC-812 (breast, adherent, top dose 20 µM)	0.891	> 20
UACC-893 (breast, adherent, top dose 20 µM)	0.842	> 20
UM-UC-3 (bladder, adherent, top dose 20 µM)	0.956	> 20
UMC-11 (lung carcinoid, adherent, top dose 20 µM)	0.896	> 20
UWB1.289 (ovary, adherent, top dose 20 µM)	0.979	> 20
VA-ES-BJ (soft tissue, adherent, top dose 20 µM)	0.96	> 20
VAL (B-cell lymphoma, suspension, top dose 20 µM)	0.842	14.1
VCaP (prostate, adherent, top dose 20 µM)	0.904	> 20
VM-CUB-1 (bladder, adherent, top dose 20 µM)	0.975	> 20
VMRC-MELG (melanoma, adherent, top dose 20 µM)	0.989	> 20
VMRC-RCW (kidney, adherent, top dose 20 µM)	0.886	19.3
VMRC-RCZ (kidney, adherent, top dose 20 µM)	0.512	1.36
WIL2-NS (lymphoid neoplasm, suspension, top dose 20 µM)	0.535	1.53
WM35 (melanoma, adherent, top dose 20 µM)	0.949	> 20
WM278 (melanoma, adherent, top dose 20 µM)	0.727	6.07
WM793B (melanoma, adherent, top dose 20 µM)	0.785	9.59

Source: the supplement of paper PMC4967469
